Among the data in PubChem BioAssay AID360 (National Center for Advancing Translational Sciences (NCATS), 2006) are Potency values, retold here.

SMILES strings stand for the structures. The whole screen tested about 48,000 compounds, of which about 550 (1.1%) were called active. Inconclusive results (about 4%) are left out. Rule as the data show it: active = potency below about 15 µM; inconclusive = mostly about 16 µM to 33 µM; inactive = weaker than that. The list shows a part of the results.
Potency is read from the fitted curve at half-maximal effect.

Chain of UniProt P04062 (P04062 whole entry, looked up): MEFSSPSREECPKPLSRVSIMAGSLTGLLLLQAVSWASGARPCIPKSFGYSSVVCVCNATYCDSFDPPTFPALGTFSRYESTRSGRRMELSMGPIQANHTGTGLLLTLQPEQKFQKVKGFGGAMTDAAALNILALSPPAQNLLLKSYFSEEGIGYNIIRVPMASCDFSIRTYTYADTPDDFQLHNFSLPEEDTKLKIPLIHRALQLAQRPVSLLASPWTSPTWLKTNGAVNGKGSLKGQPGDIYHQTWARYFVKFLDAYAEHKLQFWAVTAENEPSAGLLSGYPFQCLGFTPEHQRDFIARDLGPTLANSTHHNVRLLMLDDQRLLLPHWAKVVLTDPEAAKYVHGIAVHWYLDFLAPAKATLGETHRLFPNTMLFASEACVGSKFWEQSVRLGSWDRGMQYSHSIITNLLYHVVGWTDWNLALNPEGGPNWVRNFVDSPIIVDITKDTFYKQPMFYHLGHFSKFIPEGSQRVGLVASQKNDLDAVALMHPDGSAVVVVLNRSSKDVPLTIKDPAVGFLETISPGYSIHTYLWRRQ

The assay has as its target Lysosomal acid glucosylceramidase (Homo sapiens) (UniProt P04062). Description: Glucocerebrosidase.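 Also: the screen sought inhibitors.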 As to conditions: purified enzyme, resorufin glucoside fluorescence (screen aimed at inhibitors), 20 min. In a few lines:
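Normal human glucocerebrosidase (0.2 nM final) was assayed with resorufin β-D-glucopyranoside (30 uM final) in 50mM citric acid/KH2PO4, 10mM sodium taurocholate, 0.01% tween-20, pH 5.9. Compounds were titrated; fluorescence (Ex 548, Em 600) read after 20 min at RT.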
Regarding `Cc1cnc(C(=O)N2CCN(S(=O)(=O)c3ccc4ccccc4c3)CC2)cn1`, the Potency was inactive: > 76.9 µM.
`CCOC(=O)c1cc2c(ccn2C)n1Cc1ccccc1C`: the Potency was inactive: > 76.9 µM.
Turning to `COCCn1c(SCC(=O)c2ccc3c(c2)OCCO3)nnc1-c1ccoc1C`, the Potency was inactive: > 76.9 µM.
Under `O=C(CC1NC2CCCCC2NC1=O)Nc1ccc2c(c1)OCO2` (stereo unspecified) stands inactive: > 76.9 µM.
Under `COC(=O)CCn1nnc(-c2ccc(C)cc2)n1` stands inactive: > 76.9 µM.
To `COC(=O)CNc1nc(C2CC2)nc2c1nnn2Cc1ccccc1Cl` belongs inactive: > 76.9 µM; to `COc1ccc2c(c1)Cc1sc(NC(=O)c3cccs3)nc1-2`, inactive: > 76.9 µM.
`Cc1cccc(-c2nc(CSCC(=O)N3CCN(Cc4ccc5c(c4)OCO5)CC3)c(C)o2)c1`: the Potency was inactive: > 76.9 µM.
With `CCCCCCn1c(C(C)NC(=O)c2ccco2)nc2ccccc21` (stereo unspecified), the Potency was inactive: > 76.9 µM.
Take `Cn1nnnc1SCC(=O)NCCCc1ccccc1`: the Potency is inactive: > 76.9 µM.
For the molecule `Cc1c(N(C)C(=O)c2ccccc2F)c(=O)n(-c2ccccc2)n1C`, the Potency was inactive: > 76.9 µM.
With `COc1ccccc1CNC(=O)CN(C)CC(=O)Nc1cccc(F)c1`, the Potency was inactive: > 76.9 µM.
For the molecule `O=C(CCCN1C(=O)CSc2ncccc21)N1CCN(c2cccc(C(F)(F)F)c2)CC1`, the Potency is inactive: > 76.9 µM.
In the case of `O=C(O)CSCC(=O)Nc1cccc2ccccc12`, the Potency was inactive: > 76.9 µM.
To `O=C(C1CCN(S(=O)(=O)N2CCOCC2)CC1)N1CCOCC1` belongs inactive: > 76.9 µM.
Turning to `CCOc1ccc(C(=O)NCC(=O)OC(C)C(=O)NCc2ccco2)cc1OCC` (stereo unspecified), the Potency is inactive: > 76.9 µM.
To `c1ccc(Oc2cccc(NC3=NCCC3)c2)cc1` belongs “inactive”; to `CCc1nc(SCc2cc(Cl)ccc2OC)n[nH]1`, inactive: > 76.9 µM; to `COc1ccc(C2C(C(=O)Nc3cc(C)on3)c3ccccc3C(=O)N2C)cc1` (stereo unspecified), inactive: > 76.9 µM.
On to `Cc1ccc(N2CC(C(=O)NCCCn3ccnc3)CC2=O)cc1` (stereo unspecified), for which the Potency was inactive: > 76.9 µM.
Turning to `CCOC(=O)C1CSC(CC(=O)Nc2ccc(Cl)cc2)C(=O)N1` (stereo unspecified), the Potency is inactive: > 76.9 µM.
To `O=C(Nc1ccc(Oc2ncccn2)cc1)c1ccco1` belongs inactive: > 76.9 µM; to `COCCn1c(SCC(=O)N2CCCc3ccccc32)nc2cccnc21`, inactive: > 76.9 µM; to `Cc1cc(C(=O)N2CCc3ccccc32)c2ccccc2n1`, inactive: > 76.9 µM.
`CN(C)c1oc(-c2ccco2)nc1C#N`: the Potency was inactive: > 76.9 µM.
Take `CCc1nc(N)c(C#N)c(-c2cccnc2)c1C`: the Potency is inactive: > 76.9 µM.
For the molecule `CC(=O)c1ccc(NC2CC(O)C(O)CO2)cc1` (stereo unspecified), the Potency is inactive: > 76.9 µM.
Take `CCCCn1c(SCC(=O)Nc2nc(C)cs2)nnc1-c1cccnc1`: the Potency is inactive: > 76.9 µM.
Consider `O=C(O)C(Cc1ccccc1)n1cnnn1` (stereo unspecified), for which the Potency is inactive: > 76.9 µM.
`Cc1cc(C(F)(F)F)n2nc(C(=O)O)c(Cl)c2n1`: the Potency is inactive: > 76.9 µM.
Under `CCc1cc2c(cc(C(=O)O)n2C)s1` stands inactive: > 76.9 µM; under `CCCCCn1c(CN2CCN(c3cccc(Cl)c3)CC2)nc2c1c(=O)[nH]c(=O)n2C`, inactive: > 76.9 µM.
With `CCN(CCNC(=O)CN1CCN(Cc2ccc(Cl)cc2)C1=O)c1ccccc1`, the Potency was inactive: > 76.9 µM.
Regarding `CC(=O)Nc1ccc(NC(=O)c2c(C)nc3ccccn23)cc1`, the Potency is inactive: > 76.9 µM.
To `O=C(O)c1ccc(CSc2nc3ccccc3o2)cc1` belongs inactive: > 76.9 µM; to `Cc1ccccc1NC(=O)C1CC(=O)N(c2ccccc2F)C1` (stereo unspecified), inactive: > 76.9 µM; to `O=C(CSc1nnc(-c2cnccn2)n1Cc1ccco1)c1ccc(Cl)cc1`, inactive: > 76.9 µM.
Consider `CC(C)(C)C(=O)COC(=O)c1cccc(NC(=O)c2ccco2)c1`, for which the Potency is inactive: > 76.9 µM.
For the molecule `O=C(O)COc1cccc(NC(=O)C2CCCO2)c1` (stereo unspecified), the Potency is inactive: > 76.9 µM.
On to `O=C(CC1N=C2c3ccccc3N=C(SCc3ccccc3Cl)N2C1=O)NCc1ccco1` (stereo unspecified), for which the Potency is inactive: > 76.9 µM.
As to `O=S(=O)(Cc1ccc(Cl)cc1)N1CCCC1`, the Potency is inactive: > 76.9 µM.
As to `CCCCC(=O)Nc1nnn(CCC)n1`, the Potency was inactive: > 76.9 µM.
As to `Nn1c(SCC(=O)Nc2ccccc2F)nc2ccccc2c1=O`, the Potency was inactive: > 76.9 µM.
Under `COc1ccc(NC(=O)CSC2CC(=O)N(c3ccc4c(c3)OCCO4)C2=O)cc1` (stereo unspecified) stands inactive: > 76.9 µM; under `COc1ccc2cc(C(=O)NCc3ccco3)c(=Nc3ccc(C(=O)O)cc3)oc2c1`, inactive: > 76.9 µM; under `O=C(CNS(=O)(=O)c1cccc2nonc12)NCc1ccc(F)cc1`, inactive: > 76.9 µM.
To `COc1ccc(-c2nnc(SCC(=O)NCc3ccco3)n2C)cc1` belongs inactive: > 76.9 µM; to `O=C(CC(Nc1ccccc1)C(=O)O)c1ccccc1` (stereo unspecified), inactive: > 76.9 µM.
To `O=C1NC(=O)C2(CCc3ccccc32)N1` (stereo unspecified) belongs inactive: > 76.9 µM; to `Fc1cccc(Cl)c1Cn1nnc2c(NCc3ccccn3)ncnc21`, inactive: > 76.9 µM; to `COCCn1nnnc1CN1CCOCC1`, inactive: > 76.9 µM.
Consider `Cn1c(=O)[nH]c(=O)c2c1nc1n2CCCS1`, for which the Potency is inactive: > 76.9 µM.
Take `O=C(CCNC(=O)Cn1ccc2ccccc2c1=O)NCCN1CCN(c2cccc(Cl)c2)CC1`: the Potency is inactive: > 76.9 µM.
Under `Cc1ccc(-c2nnc(SCC(=O)Nc3ccc4c(c3)OCCO4)n2N)cc1` stands inactive: > 76.9 µM.
As to `COc1ccc(OC)c(-n2c(SCC(C)=O)nnc2-c2cccc(S(=O)(=O)N(C)C)c2)c1`, the Potency is inactive: > 76.9 µM.
Turning to `CCCNC(=O)c1cc(-c2ccc(Br)cc2)on1`, the Potency was inactive: > 76.9 µM.
Under `Cc1cc(C)cc(-c2nnc(SCC(=O)NCc3cccs3)o2)c1` stands inactive: > 76.9 µM; under `c1ccc(CSc2nnc(-c3cccs3)o2)cc1`, inactive: > 76.9 µM; under `O=C1CC(c2cccs2)c2cc3c(cc2N1)OCCO3` (stereo unspecified), inactive: > 76.9 µM.
Turning to `C=CCN1C(=O)N(/C=C/C)c2cccc3cccc1c23`, the Potency was inactive: > 76.9 µM.
Take `Cc1ccc(Cn2c(SCC(=O)Nc3cc(C)on3)nc3ccccc3c2=O)cc1`: the Potency is inactive: > 76.9 µM.
